Measurements from the supplement of paper PMC8728848.
This is one part of the list.

Key:
Assay in all cases: glycan array binding signal (z-score within array); higher = stronger binding
Details in all cases: glycan notation: IUPAC condensed, linker removed
[1] = molecular target: Neu5Ac(a2-3)Gal(b1-4)GlcNAc(b1-3)[Neu5Ac(a2-3)Gal(b1-4)GlcNAc(b1-6)]GalNAc
Procedure, shortened: (§1)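 From the Consortium for Functional Glycomics database, 3228 arrays were curated, keeping only those whose protein sequence was available. Binding is given as a within-array Z-score averaged across arrays sharing a protein sequence and across linkers. Negative Z-scores can be read as non-binding.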

[2] = molecular target: Neu5Ac(a2-3)Gal(b1-4)GlcNAc(b1-6)GalNAc
Procedure, shortened: as §1

[3] = molecular target: Neu5Ac(a2-3)Gal(b1-4)GlcNAc(b1-6)[Gal(b1-3)]GalNAc
Procedure, shortened: as §1

[4] = molecular target: Neu5Ac(a2-3)Gal(b1-4)GlcNAc(b1-6)[Neu5Ac(a2-3)Gal(b1-3)]GalNAc
Procedure, shortened: as §1

[5] = molecular target: Neu5Ac(a2-3)Gal(b1-4)GlcNAc6S
Procedure, shortened: as §1

[6] = molecular target: Neu5Ac(a2-3)Gal(b1-4)[Fuc(a1-3)]GlcNAc
Procedure, shortened: as §1

[7] = molecular target: Neu5Ac(a2-3)Gal(b1-4)[Fuc(a1-3)]GlcNAc(b1-2)Man
Procedure, shortened: as §1

[8] = molecular target: Neu5Ac(a2-3)Gal(b1-4)[Fuc(a1-3)]GlcNAc(b1-3)Gal
Procedure, shortened: as §1

[9] = molecular target: Neu5Ac(a2-3)Gal(b1-4)[Fuc(a1-3)]GlcNAc(b1-3)Gal(b1-4)GlcNAc
Procedure, shortened: as §1

[10] = molecular target: Neu5Ac(a2-3)Gal(b1-4)[Fuc(a1-3)]GlcNAc(b1-3)Gal(b1-4)[Fuc(a1-3)]GlcNAc(b1-3)Gal(b1-4)[Fuc(a1-3)]GlcNAc
Procedure, shortened: as §1

[11] = molecular target: Neu5Ac(a2-3)Gal(b1-4)[Fuc(a1-3)]GlcNAc(b1-3)GalNAc
Procedure, shortened: as §1

[12] = molecular target: Neu5Ac(a2-3)Gal(b1-4)[Fuc(a1-3)]GlcNAc(b1-6)[Gal(b1-3)]GalNAc
Procedure, shortened: as §1

[13] = molecular target: Neu5Ac(a2-3)Gal(b1-4)[Fuc(a1-3)]GlcNAc(b1-6)[Neu5Ac(a2-3)Gal(b1-3)]GalNAc
Procedure, shortened: as §1

[14] = molecular target: Neu5Ac(a2-3)Gal(b1-4)[Fuc(a1-3)]GlcNAc6S
Procedure, shortened: as §1

[15] = molecular target: Neu5Ac(a2-3)Gal6S(b1-4)GlcNAc
Procedure, shortened: as §1

[16] = molecular target: Neu5Ac(a2-3)Gal6S(b1-4)[Fuc(a1-3)]GlcNAc
Procedure, shortened: as §1

[17] = molecular target: Neu5Ac(a2-3)GalNAc
Procedure, shortened: as §1

[18] = molecular target: Neu5Ac(a2-3)GalNAc(b1-4)GlcNAc
Procedure, shortened: as §1

[19] = molecular target: Neu5Ac(a2-3)[GalNAc(b1-4)]Gal(b1-4)Glc
Procedure, shortened: as §1

[20] = molecular target: Neu5Ac(a2-3)[GalNAc(b1-4)]Gal(b1-4)GlcNAc
Procedure, shortened: as §1

[21] = molecular target: Neu5Ac(a2-3)[GalNAc(b1-4)]Gal(b1-4)GlcNAc(b1-3)GalNAc
Procedure, shortened: as §1

[22] = molecular target: Neu5Ac(a2-3)[Neu5Ac(a2-6)]GalNAc
Procedure, shortened: as §1

[23] = molecular target: Neu5Ac(a2-6)Gal
Procedure, shortened: as §1

[24] = molecular target: Neu5Ac(a2-6)Gal(b1-3)GlcNAc(b1-3)[Gal(b1-4)GlcNAc(b1-6)]Gal(b1-4)Glc
Procedure, shortened: as §1

[25] = molecular target: Neu5Ac(a2-6)Gal(b1-4)Glc
Procedure, shortened: as §1

[26] = molecular target: Neu5Ac(a2-6)Gal(b1-4)GlcNAc
Procedure, shortened: as §1

[27] = molecular target: Neu5Ac(a2-6)Gal(b1-4)GlcNAc(b1-2)Man
Procedure, shortened: as §1

[28] = molecular target: Neu5Ac(a2-6)Gal(b1-4)GlcNAc(b1-2)Man(a1-3)Man(b1-4)GlcNAc(b1-4)GlcNAc
Procedure, shortened: as §1

[29] = molecular target: Neu5Ac(a2-6)Gal(b1-4)GlcNAc(b1-2)Man(a1-3)[Gal(b1-4)GlcNAc(b1-2)Man(a1-6)]Man(b1-4)GlcNAc(b1-4)GlcNAc
Procedure, shortened: as §1

[30] = molecular target: Neu5Ac(a2-6)Gal(b1-4)GlcNAc(b1-2)Man(a1-3)[GlcNAc(b1-2)Man(a1-6)]Man(b1-4)GlcNAc(b1-4)GlcNAc
Procedure, shortened: as §1

[31] = molecular target: Neu5Ac(a2-6)Gal(b1-4)GlcNAc(b1-2)Man(a1-3)[GlcNAc(b1-4)][Neu5Ac(a2-6)Gal(b1-4)GlcNAc(b1-2)Man(a1-6)]Man(b1-4)GlcNAc(b1-4)GlcNAc
Procedure, shortened: as §1

[32] = molecular target: Neu5Ac(a2-6)Gal(b1-4)GlcNAc(b1-2)Man(a1-3)[Man(a1-6)]Man(b1-4)GlcNAc(b1-4)GlcNAc
Procedure, shortened: as §1

[33] = molecular target: Neu5Ac(a2-6)Gal(b1-4)GlcNAc(b1-2)Man(a1-3)[Neu5Ac(a2-3)Gal(b1-4)GlcNAc(b1-2)Man(a1-6)]Man(b1-4)GlcNAc(b1-4)GlcNAc
Procedure, shortened: as §1

[34] = molecular target: Neu5Ac(a2-6)Gal(b1-4)GlcNAc(b1-2)Man(a1-3)[Neu5Ac(a2-6)Gal(b1-4)GlcNAc(b1-2)Man(a1-6)]Man(b1-4)GlcNAc(b1-4)GlcNAc
Procedure, shortened: as §1

[35] = molecular target: Neu5Ac(a2-6)Gal(b1-4)GlcNAc(b1-2)Man(a1-3)[Neu5Ac(a2-6)Gal(b1-4)GlcNAc(b1-2)Man(a1-6)]Man(b1-4)GlcNAc(b1-4)[Fuc(a1-6)]GlcNAc
Procedure, shortened: as §1

[36] = molecular target: Neu5Ac(a2-6)Gal(b1-4)GlcNAc(b1-2)Man(a1-6)Man(b1-4)GlcNAc(b1-4)GlcNAc
Procedure, shortened: as §1

[37] = molecular target: Neu5Ac(a2-6)Gal(b1-4)GlcNAc(b1-2)Man(a1-6)[Gal(b1-4)GlcNAc(b1-2)Man(a1-3)]Man(b1-4)GlcNAc(b1-4)GlcNAc
Procedure, shortened: as §1

[38] = molecular target: Neu5Ac(a2-6)Gal(b1-4)GlcNAc(b1-2)Man(a1-6)[GlcNAc(b1-2)Man(a1-3)]Man(b1-4)GlcNAc(b1-4)GlcNAc
Procedure, shortened: as §1

[39] = molecular target: Neu5Ac(a2-6)Gal(b1-4)GlcNAc(b1-2)Man(a1-6)[Man(a1-3)]Man(b1-4)GlcNAc(b1-4)GlcNAc
Procedure, shortened: as §1

[40] = molecular target: Neu5Ac(a2-6)Gal(b1-4)GlcNAc(b1-2)[Neu5Ac(a2-6)Gal(b1-4)GlcNAc(b1-4)]Man(a1-3)[GlcNAc(b1-4)][Neu5Ac(a2-6)Gal(b1-4)GlcNAc(b1-2)[Neu5Ac(a2-6)Gal(b1-4)GlcNAc(b1-6)]Man(a1-6)]Man(b1-4)GlcNAc(b1-4)GlcNAc
Procedure, shortened: as §1

[41] = molecular target: Neu5Ac(a2-6)Gal(b1-4)GlcNAc(b1-2)[Neu5Ac(a2-6)Gal(b1-4)GlcNAc(b1-4)]Man(a1-3)[GlcNAc(b1-4)][Neu5Ac(a2-6)Gal(b1-4)GlcNAc(b1-4)Man(a1-6)]Man(b1-4)GlcNAc(b1-4)GlcNAc
Procedure, shortened: as §1

[42] = molecular target: Neu5Ac(a2-6)Gal(b1-4)GlcNAc(b1-2)[Neu5Ac(a2-6)Gal(b1-4)GlcNAc(b1-6)]Man(a1-6)[Neu5Ac(a2-6)Gal(b1-4)GlcNAc(b1-2)Man(a1-3)][GlcNAc(b1-4)]Man(b1-4)GlcNAc(b1-4)GlcNAc
Procedure, shortened: as §1

[43] = molecular target: Neu5Ac(a2-6)Gal(b1-4)GlcNAc(b1-3)Gal(b1-3)GlcNAc
Procedure, shortened: as §1

[44] = molecular target: Neu5Ac(a2-6)Gal(b1-4)GlcNAc(b1-3)Gal(b1-4)GlcNAc
Procedure, shortened: as §1

[45] = molecular target: Neu5Ac(a2-6)Gal(b1-4)GlcNAc(b1-3)Gal(b1-4)GlcNAc(b1-2)Man(a1-3)[Neu5Ac(a2-6)Gal(b1-4)GlcNAc(b1-3)Gal(b1-4)GlcNAc(b1-2)Man(a1-6)]GalNAc
Procedure, shortened: as §1

[46] = molecular target: Neu5Ac(a2-6)Gal(b1-4)GlcNAc(b1-3)Gal(b1-4)GlcNAc(b1-3)Gal(b1-4)GlcNAc
Procedure, shortened: as §1

B1: SRA-1 (Homo sapiens), P21757 (protein)
chain: MEQWDHFHNQQEDTDSCSESVKFDARSMTALLPPNPKNSPSLQEKLKSFKAALIALYLLVFAVLIPLIGIVAAQLLKWETKNCSVSSTNANDITQSLTGKGNDSEEEMRFQEVFMEHMSNMEKRIQHILDMEANLMDTEHFQNFSMTTDQRFNDILLQLSTLFSSVQGHGNAIDEISKSLISLNTTLLDLQLNIENLNGKIQENTFKQQEEISKLEERVYNVSAEIMAMKEEQVHLEQEIKGEVKVLNNITNDLRLKDWEHSQTLRNITLIQGPPGPPGEKGDRGPTGESGPRGFPGPIGPPGLKGDRGAIGFPGSRGLPGYAGRPGNSGPKGQKGEKGSGNTLTPFTKVRLVGGSGPHEGRVEILHSGQWGTICDDRWEVRVGQVVCRSLGYPGVQAVHKAAHFGQGTGPIWLNEVFCFGRESSIEECKIRQWGTRACSHSEDAGVTCTL
Q: For B1, which “glycan array binding signal (z-score)” value [1] is on record?
A: -0.523

Q: And the “glycan array binding signal (z-score)” value [2]?
A: 0.163

Q: And the “glycan array binding signal (z-score)” value [3]?
A: -0.37

Q: What about the “glycan array binding signal (z-score)” value [4] of the same binder?
A: -0.579

Q: What about the “glycan array binding signal (z-score)” value [5] of the same binder?
A: 0.181

Q: And the “glycan array binding signal (z-score)” value [6]?
A: -0.069

Q: What about the “glycan array binding signal (z-score)” value [7] of the same binder?
A: -0.226

Q: And the “glycan array binding signal (z-score)” value [8]?
A: -0.16

Q: What about the “glycan array binding signal (z-score)” value [9] of the same binder?
A: 0.533

Q: And the “glycan array binding signal (z-score)” value [10]?
A: 0.725

Q: What about the “glycan array binding signal (z-score)” value [11] of the same binder?
A: 1.05

Q: What about the “glycan array binding signal (z-score)” value [12] of the same binder?
A: 1.18

Q: What about the “glycan array binding signal (z-score)” value [13] of the same binder?
A: -0.114

Q: And the “glycan array binding signal (z-score)” value [14]?
A: -0.154

Q: And the “glycan array binding signal (z-score)” value [15]?
A: 0.022

Q: What about the “glycan array binding signal (z-score)” value [16] of the same binder?
A: -0.502

Q: And the “glycan array binding signal (z-score)” value [17]?
A: -0.364

Q: And the “glycan array binding signal (z-score)” value [18]?
A: -0.329

Q: And the “glycan array binding signal (z-score)” value [19]?
A: -0.214

Q: And the “glycan array binding signal (z-score)” value [20]?
A: -0.507

Q: And the “glycan array binding signal (z-score)” value [21]?
A: 0.563

Q: And the “glycan array binding signal (z-score)” value [22]?
A: -0.002

Q: What about the “glycan array binding signal (z-score)” value [23] of the same binder?
A: -0.353

Q: What about the “glycan array binding signal (z-score)” value [24] of the same binder?
A: -0.061

Q: What about the “glycan array binding signal (z-score)” value [25] of the same binder?
A: 0.128

Q: What about the “glycan array binding signal (z-score)” value [26] of the same binder?
A: 0.017

Q: What about the “glycan array binding signal (z-score)” value [27] of the same binder?
A: -0.37

Q: And the “glycan array binding signal (z-score)” value [28]?
A: -0.097

Q: And the “glycan array binding signal (z-score)” value [29]?
A: -0.016

Q: What about the “glycan array binding signal (z-score)” value [30] of the same binder?
A: -0.307

Q: What about the “glycan array binding signal (z-score)” value [31] of the same binder?
A: -0.341

Q: And the “glycan array binding signal (z-score)” value [32]?
A: -0.137

Q: And the “glycan array binding signal (z-score)” value [33]?
A: 0.472

Q: What about the “glycan array binding signal (z-score)” value [34] of the same binder?
A: 0.143

Q: What about the “glycan array binding signal (z-score)” value [35] of the same binder?
A: 0.228

Q: And the “glycan array binding signal (z-score)” value [36]?
A: 0.243

Q: What about the “glycan array binding signal (z-score)” value [37] of the same binder?
A: -0.025

Q: What about the “glycan array binding signal (z-score)” value [38] of the same binder?
A: -0.109

Q: And the “glycan array binding signal (z-score)” value [39]?
A: -0.336

Q: What about the “glycan array binding signal (z-score)” value [40] of the same binder?
A: -0.097

Q: And the “glycan array binding signal (z-score)” value [41]?
A: -0.344

Q: What about the “glycan array binding signal (z-score)” value [42] of the same binder?
A: -0.404

Q: What about the “glycan array binding signal (z-score)” value [43] of the same binder?
A: -0.066

Q: What about the “glycan array binding signal (z-score)” value [44] of the same binder?
A: -0.257

Q: And the “glycan array binding signal (z-score)” value [45]?
A: 0.355

Q: What about the “glycan array binding signal (z-score)” value [46] of the same binder?
A: 0.218
